According to the RNAGym collection of RNA variant scans (doi:10.1073/pnas.2313332121):
This sample is rich in variants without activity.

B1: TPR 5TU (parent)
chain: GGAUCUUCUCGAUCUAACAAAAAAGACAAAUCUGCCACAAAGCUUGAGAGCAUCUUCGGAUGCAGAGGCGGCAGCCUUCGGUGGCGCGAUAGCGCCAACGUUCUCAACUAUGACACGCAAAACGCGUGCUCCGUUGAAUGGAGUUUAUCAUG

Variants of: B1
Assay: polymerase ribozyme fitness, log enrichment relative to wild type (log ratio); higher = more active; in vitro selection for triplet polymerase activity
Outline: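 Fitness compares each genotype's enrichment to that of the wild type on a logarithmic scale, averaging replicates with inverse-variance weights. The logarithm is base 2. Enrichment came from Illumina sequencing of input and output libraries after one triplicate round of in vitro selection, which included frozen incubation at −7 °C, of PCR-built, transcribed mutant libraries of each subunit of a heterodimeric triplet polymerase ribozyme. Only genotypes with ≥10 input reads and ≥1 read per output were kept.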

C14G A17U A37U A52G C57U A91U U127A U134A A150U and C14G A23G G88A cannot be ordered by “polymerase ribozyme fitness (log ratio)” value: ≤ -4.2 for the first, ≤ -4.2 for the second.

C14G U44G G46A A52U C87A C99G U151G and C14G A26G G58U C72U A122G cannot be ordered by “polymerase ribozyme fitness (log ratio)” value: ≤ -4.2 for the first, ≤ -4.2 for the second.

U13G G70A G81C G92C A121C and C14U C54G C93A C95G A150G cannot be ordered by “polymerase ribozyme fitness (log ratio)” value: ≤ -4.2 for the first, ≤ -4.2 for the second.

Going from C14G C38G C96A G112U G117C to C14A G62U, the “polymerase ribozyme fitness (log ratio)” value rises from ≤ -4.2 to -1.57.

C14G C54U G59C C63U A110U G143C and C14G C38U G68U G80U A91G C103A U139C cannot be ordered by “polymerase ribozyme fitness (log ratio)” value: ≤ -4.2 for the first, ≤ -4.2 for the second.

U15A A47C G48C G58C C125U G140A and U13G A41U C43U C75G G80C U101C C103A C116A A121C cannot be ordered by “polymerase ribozyme fitness (log ratio)” value: ≤ -4.2 for the first, ≤ -4.2 for the second.

C14G A52G U55A G59C U102A A110G U134A and C14G U55A G71A A73G G94C A110C C114G G133A cannot be ordered by “polymerase ribozyme fitness (log ratio)” value: ≤ -4.2 for the first, ≤ -4.2 for the second.

C14G U53A C54A U61G G62U U146C and C14G C51A U56A C75G G136U cannot be ordered by “polymerase ribozyme fitness (log ratio)” value: ≤ -4.2 for the first, ≤ -4.2 for the second.

C14A A29G G70C G140U and C14A A16C G46A G67C C85A C95A cannot be ordered by “polymerase ribozyme fitness (log ratio)” value: ≤ -4.2 for the first, ≤ -4.2 for the second.

First: C14U C85U
Second: C14G A47G U61G G88A C93U C95A A110C U134G
The “polymerase ribozyme fitness (log ratio)” value of the first is higher: -1.65 for the first, ≤ -4.2 for the second.

C14G A39U G58A U61G C85U C95U A107C G141C U146C and U13G C87A U146G cannot be ordered by “polymerase ribozyme fitness (log ratio)” value: ≤ -4.2 for the first, ≤ -4.2 for the second.

First: C14U G94A
Second: C14G A49C A52C U53A C63U A64U A66G C69A C85U U111G A115U A147U C149G
The “polymerase ribozyme fitness (log ratio)” value of the first is higher: -1.85 for the first, ≤ -4.2 for the second.

C14G A66C and C14U A20C U33A C76G G92C G141A cannot be ordered by “polymerase ribozyme fitness (log ratio)” value: ≤ -4.2 for the first, ≤ -4.2 for the second.

First: C14A A49G G92C A107G G136A
Second: U15C A22C C85U U127C
The “polymerase ribozyme fitness (log ratio)” value of the first is lower: ≤ -4.2 for the first, -2 for the second.

First: U15C A21C G48C C93U U146G
Second: U13G G83U C108U
The “polymerase ribozyme fitness (log ratio)” value of the first is higher: -0.835 for the first, ≤ -4.2 for the second.

C14A U55G A73G C75G C85G C114A and C14U C18G C32G A66C C93U A98U cannot be ordered by “polymerase ribozyme fitness (log ratio)” value: ≤ -4.2 for the first, ≤ -4.2 for the second.

C14U A20U A24U G42A A49C C57A A60C U104G C114A A115C and C14A A16C A28G A60G C79G A91G A122C cannot be ordered by “polymerase ribozyme fitness (log ratio)” value: ≤ -4.2 for the first, ≤ -4.2 for the second.

Going from C14U A29U U56A G65U U77G C87A C99G G124C to C14A U15C A19C A20C U45C G86U, the “polymerase ribozyme fitness (log ratio)” value rises from ≤ -4.2 to -4.11.

First: C14A C54U
Second: C14G G59A C87G A89U C118U C149G
The “polymerase ribozyme fitness (log ratio)” value of the first is higher: -2.07 for the first, ≤ -4.2 for the second.

Compared with C14U A40G G58C G59C G68C G80A G94A, U15A A60G G80U C96U A122C is higher in “polymerase ribozyme fitness (log ratio)” value: ≤ -4.2 for the first, -1.4 for the second.

U13G A39U G86C C95U C118U and C14G G68U C87U cannot be ordered by “polymerase ribozyme fitness (log ratio)” value: ≤ -4.2 for the first, ≤ -4.2 for the second.

U13G G25C C57G A73G A137C and C14G U56G C57U C63U C72U U151G cannot be ordered by “polymerase ribozyme fitness (log ratio)” value: ≤ -4.2 for the first, ≤ -4.2 for the second.

C14A A39U A73G C95G and C14A A19G G68A C99A C123U cannot be ordered by “polymerase ribozyme fitness (log ratio)” value: ≤ -4.2 for the first, ≤ -4.2 for the second.

Compared with C14G C69A C76A C87U A89U C108U, C14G G88C C125G is higher in “polymerase ribozyme fitness (log ratio)” value: ≤ -4.2 for the first, -4.08 for the second.

C14G G62A G81A A91U and C14G C57U A91C C108U A120C U145C cannot be ordered by “polymerase ribozyme fitness (log ratio)” value: ≤ -4.2 for the first, ≤ -4.2 for the second.

Compared with U13G C54G, U13G C69U A107C A150C is lower in “polymerase ribozyme fitness (log ratio)” value: -3.62 for the first, ≤ -4.2 for the second.

C14G U44G A73G G88C A91C U102G U127C G133U and C14G G25U U55A C93A cannot be ordered by “polymerase ribozyme fitness (log ratio)” value: ≤ -4.2 for the first, ≤ -4.2 for the second.

Going from C14G A41C C93U C116G C149G to U15C A16C C85U C118A, the “polymerase ribozyme fitness (log ratio)” value rises from ≤ -4.2 to -2.79.

C14U A22G A47C C51U G86C and C14U A22C G50U C57A C76G C99U U102C C131U U148G cannot be ordered by “polymerase ribozyme fitness (log ratio)” value: ≤ -4.2 for the first, ≤ -4.2 for the second.

C14G C27G G42A G84A C85G G128U C131G and C14U A20G A21G A41C G80C C95U G117A G133C cannot be ordered by “polymerase ribozyme fitness (log ratio)” value: ≤ -4.2 for the first, ≤ -4.2 for the second.

C14G A41U C63G U102C and U13G U56A C79A U104G C105G cannot be ordered by “polymerase ribozyme fitness (log ratio)” value: ≤ -4.2 for the first, ≤ -4.2 for the second.

C14A A20G C38A A39G C54U A91C A106U G124C and C14U G46A A49U C76G A121G C131G cannot be ordered by “polymerase ribozyme fitness (log ratio)” value: ≤ -4.2 for the first, ≤ -4.2 for the second.

C14U G81U C93A A119G and C14G G34A U44C C63A cannot be ordered by “polymerase ribozyme fitness (log ratio)” value: ≤ -4.2 for the first, ≤ -4.2 for the second.

C14G A19G C93A C95G A107G C123G G143C A150G and C14A A23C G34U C57G G83U A98C C105A cannot be ordered by “polymerase ribozyme fitness (log ratio)” value: ≤ -4.2 for the first, ≤ -4.2 for the second.

C14U C32A A37C G62A C85A A107C A147C and C14U A22C A29G A40G C57A U77G C85G A121U C131U cannot be ordered by “polymerase ribozyme fitness (log ratio)” value: ≤ -4.2 for the first, ≤ -4.2 for the second.

Compared with C14U A17U A24U C76A C85U, C14G A19U U61A A97G G133U G141A is lower in “polymerase ribozyme fitness (log ratio)” value: -3.79 for the first, ≤ -4.2 for the second.

C14G A23C A52C U53A C54A U55G A106C U139A and U13G A60C G80C G126U C131A cannot be ordered by “polymerase ribozyme fitness (log ratio)” value: ≤ -4.2 for the first, ≤ -4.2 for the second.

U15A G65A A66C A73G U127G U130C A147U and C14A A19G G48U A66C A73G G84U U135A U151G cannot be ordered by “polymerase ribozyme fitness (log ratio)” value: ≤ -4.2 for the first, ≤ -4.2 for the second.

Compared with U13G A66G G70A C96A, U15A U145C is higher in “polymerase ribozyme fitness (log ratio)” value: ≤ -4.2 for the first, 0.0727 for the second.

Compared with U15A C51U G86U, U15A U44A U56A A64C A73G C76A C93U A107G U151A is lower in “polymerase ribozyme fitness (log ratio)” value: -1.69 for the first, ≤ -4.2 for the second.

C14G G25C A47U G50A C93A U102A G124C and C14G C38U C95U C103A U148C cannot be ordered by “polymerase ribozyme fitness (log ratio)” value: ≤ -4.2 for the first, ≤ -4.2 for the second.

In the case of C14A A49G C54U G71A U77C G86U G143A, the “polymerase ribozyme fitness (log ratio)” value is reported as ≤ -4.2.
